According to paper PMC9911399, “Two distinct binding modes provide the RNA-binding protein RbFox with extraordinary sequence specificity”:
Residue numbers refer to the chain shown, from its start. The list shows a part of the results.

T1: RBFOX1 RRM RbFoxmut (Fox-RRM*) (Homo sapiens, UniProt Q9NWB1 109-208, R118D;E147R;N151S;E152T)
T1 sequence: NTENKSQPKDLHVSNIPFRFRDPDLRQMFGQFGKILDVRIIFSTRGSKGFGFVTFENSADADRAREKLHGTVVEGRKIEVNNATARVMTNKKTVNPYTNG

B1: UCUAUAC (DNA:RNA)
RNA: GGGAGACCGGAAUUCAGAUUGUCCUCUAUACUUAAAUCCCGUCGUAGCCACCA
DNA 1: CAATCTGAATTCCGGTCTCCC
DNA 2: TGGTGGCTACGACGGGATT
B2: UCAUUGA (DNA:RNA)
RNA: B1 RNA with U27A, A28U, A30G, C31A
DNA 1: CAATCTGAATTCCGGTCTCCC
DNA 2: TGGTGGCTACGACGGGATT
B3: AGCAGAG (DNA:RNA)
RNA: B1 RNA with U25A, C26G, U27C, U29G, C31G
DNA 1: CAATCTGAATTCCGGTCTCCC
DNA 2: TGGTGGCTACGACGGGATT
B4: UAUGUUC (DNA:RNA)
RNA: B1 RNA with C26A, A28G, A30U
DNA 1: CAATCTGAATTCCGGTCTCCC
DNA 2: TGGTGGCTACGACGGGATT
B5: UCCGAAC (DNA:RNA)
RNA: B1 RNA with U27C, A28G, U29A
DNA 1: CAATCTGAATTCCGGTCTCCC
DNA 2: TGGTGGCTACGACGGGATT
B6: ACCUUUU (DNA:RNA)
RNA: B1 RNA with U25A, U27C, A28U, A30U, C31U
DNA 1: CAATCTGAATTCCGGTCTCCC
DNA 2: TGGTGGCTACGACGGGATT
B7: AAGGUCA (DNA:RNA)
RNA: B1 RNA with U25A, C26A, U27G, A28G, A30C, C31A
DNA 1: CAATCTGAATTCCGGTCTCCC
DNA 2: TGGTGGCTACGACGGGATT
B8: CAUAACG (DNA:RNA)
RNA: B1 RNA with U25C, C26A, U29A, A30C, C31G
DNA 1: CAATCTGAATTCCGGTCTCCC
DNA 2: TGGTGGCTACGACGGGATT
B9: GAGCACA (DNA:RNA)
RNA: GGGAGACCGGAAUUCAGAUUGUCCGAGCACAUUAAAUCCCGUCGUAGCCACCA
DNA 1: CAATCTGAATTCCGGTCTCCC
DNA 2: TGGTGGCTACGACGGGATT
B10: GAUCAAC (DNA:RNA)
RNA: B9 RNA with G27U, C30A, A31C
DNA 1: CAATCTGAATTCCGGTCTCCC
DNA 2: TGGTGGCTACGACGGGATT
B11: CCGGUAG (DNA:RNA)
RNA: B1 RNA with U25C, U27G, A28G, C31G
DNA 1: CAATCTGAATTCCGGTCTCCC
DNA 2: TGGTGGCTACGACGGGATT
B12: GUUUGCA (DNA:RNA)
RNA: B9 RNA with A26U, G27U, C28U, A29G
DNA 1: CAATCTGAATTCCGGTCTCCC
DNA 2: TGGTGGCTACGACGGGATT
B13: GUGCUCG (DNA:RNA)
RNA: B9 RNA with A26U, A29U, A31G
DNA 1: CAATCTGAATTCCGGTCTCCC
DNA 2: TGGTGGCTACGACGGGATT
B14: UGAAACU (DNA:RNA)
RNA: B9 RNA with G25U, A26G, G27A, C28A, A31U
DNA 1: CAATCTGAATTCCGGTCTCCC
DNA 2: TGGTGGCTACGACGGGATT
B15: CUUUCAA (DNA:RNA)
RNA: B1 RNA with U25C, C26U, A28U, U29C, C31A
DNA 1: CAATCTGAATTCCGGTCTCCC
DNA 2: TGGTGGCTACGACGGGATT
B16: CCGUUAU (DNA:RNA)
RNA: B1 RNA with U25C, U27G, A28U, C31U
DNA 1: CAATCTGAATTCCGGTCTCCC
DNA 2: TGGTGGCTACGACGGGATT
B17: AGACGCU (DNA:RNA)
RNA: B9 RNA with G25A, A26G, G27A, A29G, A31U
DNA 1: CAATCTGAATTCCGGTCTCCC
DNA 2: TGGTGGCTACGACGGGATT
B18: CAAUGAG (DNA:RNA)
RNA: B9 RNA with G25C, G27A, C28U, A29G, C30A, A31G
DNA 1: CAATCTGAATTCCGGTCTCCC
DNA 2: TGGTGGCTACGACGGGATT
B19: UGCUAGG (DNA:RNA)
RNA: B9 RNA with G25U, A26G, G27C, C28U, C30G, A31G
DNA 1: CAATCTGAATTCCGGTCTCCC
DNA 2: TGGTGGCTACGACGGGATT
B20: UGUUCUG (DNA:RNA)
RNA: B1 RNA with C26G, A28U, U29C, A30U, C31G
DNA 1: CAATCTGAATTCCGGTCTCCC
DNA 2: TGGTGGCTACGACGGGATT
B21: UACGCCA (DNA:RNA)
RNA: B9 RNA with G25U, G27C, C28G, A29C
DNA 1: CAATCTGAATTCCGGTCTCCC
DNA 2: TGGTGGCTACGACGGGATT
B22: GCGUGCU (DNA:RNA)
RNA: B9 RNA with A26C, C28U, A29G, A31U
DNA 1: CAATCTGAATTCCGGTCTCCC
DNA 2: TGGTGGCTACGACGGGATT
B23: AGCUGAC (DNA:RNA)
RNA: B1 RNA with U25A, C26G, U27C, A28U, U29G
DNA 1: CAATCTGAATTCCGGTCTCCC
DNA 2: TGGTGGCTACGACGGGATT
B24: CCGUCUA (DNA:RNA)
RNA: B9 RNA with G25C, A26C, C28U, A29C, C30U
DNA 1: CAATCTGAATTCCGGTCTCCC
DNA 2: TGGTGGCTACGACGGGATT
B25: GACAUAU (DNA:RNA)
RNA: B1 RNA with U25G, C26A, U27C, C31U
DNA 1: CAATCTGAATTCCGGTCTCCC
DNA 2: TGGTGGCTACGACGGGATT
B26: GCACCCC (DNA:RNA)
RNA: B9 RNA with A26C, G27A, A29C, A31C
DNA 1: CAATCTGAATTCCGGTCTCCC
DNA 2: TGGTGGCTACGACGGGATT
B27: GUGCCCC (DNA:RNA)
RNA: B9 RNA with A26U, A29C, A31C
DNA 1: CAATCTGAATTCCGGTCTCCC
DNA 2: TGGTGGCTACGACGGGATT
B28: AGGUCCU (DNA:RNA)
RNA: B9 RNA with G25A, A26G, C28U, A29C, A31U
DNA 1: CAATCTGAATTCCGGTCTCCC
DNA 2: TGGTGGCTACGACGGGATT
B29: CGUUGAG (DNA:RNA)
RNA: B1 RNA with U25C, C26G, A28U, U29G, C31G
DNA 1: CAATCTGAATTCCGGTCTCCC
DNA 2: TGGTGGCTACGACGGGATT
B30: CCGUCCC (DNA:RNA)
RNA: B9 RNA with G25C, A26C, C28U, A29C, A31C
DNA 1: CAATCTGAATTCCGGTCTCCC
DNA 2: TGGTGGCTACGACGGGATT
B31: UACUCUU (DNA:RNA)
RNA: B9 RNA with G25U, G27C, C28U, A29C, C30U, A31U
DNA 1: CAATCTGAATTCCGGTCTCCC
DNA 2: TGGTGGCTACGACGGGATT

molecular target: T1, RBFOX1 RRM RbFoxmut (Fox-RRM*); test: EMSA; HiTS-Eq, 1 nM pool, 10 min; buffer printed only for the single-RNA assays: 10 mM Tris pH 7.5, 150 mM NaCl, 3.4 mM EDTA, 0.001% NP-40, 30 C; settings: tags: His6 N-terminal (pET28a); label: 5' 32P
In short: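 These values rest on relative association constants, computed from read-count changes of each RNA species versus the control reaction and normalised to the cognate motif. Reads came from free RNA recovered by 8% native PAGE after purified RbFox RRM (wild type or mutant) at increasing concentrations was equilibrated for 10 min in 50 µL with 1 nM of a 5′-radiolabelled pool with 7 randomized nucleotides and DNA-annealed flanks.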

Binder | binding signal
B1 | 0.102 KA relative to UGCAUGU
B2 | 0.13 KA relative to UGCAUGU
B3 | 0.13 KA relative to UGCAUGU
B4 | 0.125 KA relative to UGCAUGU
B5 | 0.0579 KA relative to UGCAUGU
B6 | 0.0865 KA relative to UGCAUGU
B7 | 0.0765 KA relative to UGCAUGU
B8 | 0.14 KA relative to UGCAUGU
B9 | 0.0821 KA relative to UGCAUGU
B10 | 0.0512 KA relative to UGCAUGU
B11 | 0.132 KA relative to UGCAUGU
B12 | 0.353 KA relative to UGCAUGU
B13 | 0.226 KA relative to UGCAUGU
B14 | 0.0458 KA relative to UGCAUGU
B15 | 0.0664 KA relative to UGCAUGU
B16 | 0.0907 KA relative to UGCAUGU

Binder | binding signal
B17 | 0.0715 KA relative to UGCAUGU
B18 | 0.103 KA relative to UGCAUGU
B19 | 0.0839 KA relative to UGCAUGU
B20 | 0.165 KA relative to UGCAUGU
B21 | 0.112 KA relative to UGCAUGU
B22 | 0.0932 KA relative to UGCAUGU
B23 | 0.109 KA relative to UGCAUGU
B24 | 0.0866 KA relative to UGCAUGU
B25 | 0.107 KA relative to UGCAUGU
B26 | 0.0363 KA relative to UGCAUGU
B27 | 0.0593 KA relative to UGCAUGU
B28 | 0.0545 KA relative to UGCAUGU
B29 | 0.111 KA relative to UGCAUGU
B30 | 0.039 KA relative to UGCAUGU
B31 | 0.0723 KA relative to UGCAUGU
